The other results are listed elsewhere or left out. Single values of this set are uncertain. Values with irradiation are relative to irradiated vehicle.
What was measured:
A549-Dual [1] = test: NF-kB reporter (SEAP) activity, viability-corrected, relative to vehicle (fold change vs vehicle); higher = more activation of STING-IRF / NF-kB immune response reporter
A549-Dual [2] = test: ISRE reporter (Lucia luciferase) activity, viability-corrected, relative to vehicle (fold change vs vehicle); higher = more activation of STING-IRF / NF-kB immune response reporter
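Wherever NF-kB reporter (SEAP) activity, viability-corrected, relative to vehicle is given: viability correction based on the alamar blue assay, with concentrations leaving 10% survival or less dropped.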

Structure (SMILES) | NF-kB reporter (A549-Dual [1]; 0.1 µM, irradiation: 8 Gy/4 fr) | NF-kB reporter (A549-Dual [1]; 0.1 µM, irradiation: none) | NF-kB reporter (A549-Dual [1]; 0.3 µM, irradiation: 8 Gy/4 fr) | NF-kB reporter (A549-Dual [1]; 0.3 µM, irradiation: none) | NF-kB reporter (A549-Dual [1]; 1 µM, irradiation: 8 Gy/4 fr) | NF-kB reporter (A549-Dual [1]; 1 µM, irradiation: none) | NF-kB reporter (A549-Dual [1]; 3 µM, irradiation: 8 Gy/4 fr) | NF-kB reporter (A549-Dual [1]; 3 µM, irradiation: none) | NF-kB reporter (A549-Dual [1]; 10 µM, irradiation: 8 Gy/4 fr) | NF-kB reporter (A549-Dual [1]; 10 µM, irradiation: none) | ISRE reporter (A549-Dual [2]; 0.1 µM, irradiation: 8 Gy/4 fr) | ISRE reporter (A549-Dual [2]; 0.1 µM, irradiation: none) | ISRE reporter (A549-Dual [2]; 0.3 µM, irradiation: 8 Gy/4 fr) | ISRE reporter (A549-Dual [2]; 0.3 µM, irradiation: none) | ISRE reporter (A549-Dual [2]; 1 µM, irradiation: 8 Gy/4 fr) | ISRE reporter (A549-Dual [2]; 1 µM, irradiation: none) | ISRE reporter (A549-Dual [2]; 3 µM, irradiation: 8 Gy/4 fr) | ISRE reporter (A549-Dual [2]; 3 µM, irradiation: none) | ISRE reporter (A549-Dual [2]; 10 µM, irradiation: 8 Gy/4 fr) | ISRE reporter (A549-Dual [2]; 10 µM, irradiation: none)
C=CC1=C(C)c2cc3nc(cc4[nH]c(cc5[nH]c(cc1n2)c(C)c5C=C)c(C)c4CCC(=O)O)C(CCC(=O)O)=C3C [Protoporphyrin IX] | 0.953 | 0.845 | 0.772 | 0.66 | 1.01 | 0.786 | 1.02 | 0.781 | 0.775 | 0.964 | 0.881 | 0.704 | 0.718 | 0.562 | 0.647 | 0.677 | 0.703 | 0.804 | 0.766 | 0.811
CC(C)=CCOc1ccc(/C=C/C(=O)c2ccc(OCC=C(C)C)cc2OCC(=O)O)cc1 [Sofalcone] | 1.05 | 1.17 | 1.07 | 1.18 | 1.27 | 0.986 | 0.972 | 0.938 | 0.663 | 1.02 | 0.899 | 1.06 | 0.889 | 0.846 | 0.939 | 0.819 | 0.805 | 0.898 | 0.754 | 0.936
CC(C)(C)c1nc(-c2cccc(NS(=O)(=O)c3c(F)cccc3F)c2F)c(-c2ccnc(N)n2)s1.CS(=O)(=O)O [Dabrafenib Mesylate] | 0.619 | 0.785 | 0.479 | 0.699 | 0.516 | 0.824 | 0.72 | 0.888 | 0.656 | 0.931 | 0.541 | 0.812 | 0.165 | 0.329 | 0.156 | 0.304 | 0.205 | 0.254 | 0.21 | 0.326
CC(=O)Oc1ccccc1C(=O)O [Aspirin] | 0.973 | 0.924 | 0.896 | 0.897 | 0.879 | 1.11 | 0.933 | 0.991 | 0.911 | 0.844 | 0.881 | 0.837 | 0.914 | 0.833 | 0.902 | 0.758 | 0.882 | 0.724 | 0.977 | 0.785
Nc1ccc(F)cc1NC(=O)c1ccc(CNC(=O)/C=C/c2cccnc2)cc1 [Tucidinostat (Chidamide)] | 1.06 | 1.19 | 1.13 | 1.18 | 1.14 | 1.31 | 0.808 | 1.2 | 0.693 | 1.09 | 0.986 | 1.44 | 0.722 | 1.3 | 0.788 | 1.27 | 0.192 | 0.808 | 0.171 | 0.631
Cc1cc(Nc2ncc(Cl)c(Nc3ccccc3S(=O)(=O)C(C)C)n2)c(OC(C)C)cc1C1CCNCC1 [Ceritinib (LDK378)] | 0.936 | 1.06 | 0.859 | 0.931 | 0.974 | 0.906 | 0.898 | 0.927 | 0.997 | 0.853 | 0.976 | 1.09 | 1.06 | 0.92 | 1.08 | 1.07 | 1.1 | 0.902 | 1.22 | 1.19
CC(=O)OC12COC1CC(O)C1(C)C(=O)C(O)C3=C(C)C(OC(=O)C(O)C(NC(=O)OC(C)(C)C)c4ccccc4)CC(O)(C(OC(=O)c4ccccc4)C21)C3(C)C.O.O.O (stereo not given) [Docetaxel Trihydrate] | 1.08 | 1.97 | 0.887 | 2.21 | 1.08 | 2.73 | 0.942 | 1.96 | 1.21 | 2.34 | 0.877 | 5.42 | 0.897 | 6.66 | 0.624 | 6.16 | 1.27 | 7.71 | 1.22 | 7.08
CCCC(=O)OC1(C(=O)CO)CCC2C3CCC4=CC(=O)CCC4(C)C3C(O)CC21C (stereo not given) [Hydrocortisone butyrate] | 0.971 | 1.08 | 1.01 | 0.877 | 0.846 | 0.869 | 0.72 | 0.861 | 0.685 | 0.948 | 0.0771 | 0.306 | 0.0917 | 0.252 | 0.0502 | 0.184 | 0.0849 | 0.233 | 0.0666 | 0.245
COc1ccc2cc1Oc1ccc(cc1)CC1c3cc(c(OC)cc3CCN1C)Oc1c(O)c(OC)cc3c1C(C2)N(C)CC3 (single isomer, unassigned; (+)) [(+)-Fangchinoline] | 0.985 | 0.936 | 0.937 | 0.922 | 0.959 | 1.24 | 0.938 | 0.941 | 0.98 | 1 | 1.11 | 0.99 | 1.11 | 1.05 | 1.21 | 1.38 | 1.09 | 1.53 | 1.35 | 2.48
COc1nc2ccc(Br)cc2cc1C(c1ccccc1)C(O)(CCN(C)C)c1cccc2ccccc12 (stereo not given) [Bedaquiline] | 1.07 | 2.03 | 1.32 | 1.71 | 1.36 | 1.3 | 1.85 | 1.29 | 1 | 0.943 | 1.09 | 1.89 | 1.11 | 1.27 | 1.21 | 1.34 | 1.15 | 1.31 | 1.41 | 1.3
COC(=O)NC(C(=O)N1CCCC1c1ncc(-c2ccc(-c3ccc(-c4cnc(C5CCCN5C(=O)C(NC(=O)OC)C(C)C)[nH]4)cc3)cc2)[nH]1)C(C)C (stereo not given) | 0.872 | 0.983 | 0.902 | 1.1 | 0.757 | 1.02 | 0.939 | 0.808 | 1.07 | 0.998 | 0.919 | 0.868 | 0.93 | 1.15 | 0.829 | 1.16 | 1.14 | 0.929 | 1.16 | 2.39
COc1cc2nccc(Oc3ccc(NC(=O)NC4CC4)c(Cl)c3)c2cc1C(N)=O [Lenvatinib (E7080)] | 1.34 | 0.924 | 1.39 | 1.01 | 1.17 | 0.832 | 1.11 | 0.743 | 0.683 | 0.708 | 1.03 | 0.821 | 1.24 | 0.87 | 0.869 | 0.618 | 0.637 | 0.406 | 0.472 | 0.374
COc1ccc2c(c1)c(CC(=O)OCC(=O)O)c(C)n2C(=O)c1ccc(Cl)cc1 [Acemetacin] | 0.771 | 0.813 | 0.595 | 0.938 | 0.869 | 0.825 | 0.72 | 0.93 | 0.712 | 0.904 | 0.796 | 0.687 | 0.57 | 0.709 | 0.549 | 0.826 | 0.661 | 0.92 | 0.676 | 0.921
CCc1nc(C(N)=O)c(Nc2ccc(N3CCC(N4CCN(C)CC4)CC3)c(OC)c2)nc1NC1CCOCC1 [Gilteritinib (ASP2215)] | 1.06 | 1 | 0.869 | 1.03 | 0.963 | 1.4 | 1.08 | 1.24 | 1.06 | 0.933 | 1.11 | 0.876 | 0.678 | 1.04 | 0.867 | 1.03 | 0.436 | 1.16 | 0.413 | 1.21
Nc1nc(N)c2nc(-c3ccccc3)c(N)nc2n1 [Triamterene] | 0.994 | 0.952 | 1.2 | 0.903 | 1.15 | 0.838 | 1.34 | 0.91 | 0.723 | 1.45 | 1.05 | 0.877 | 1.03 | 0.869 | 0.809 | 0.845 | 0.806 | 0.985 | 0.106 | 0.646
CC(Oc1cc(-c2cnn(C3CCNCC3)c2)cnc1N)c1c(Cl)ccc(F)c1Cl (stereo not given) | 1.07 | 0.939 | 1.39 | 0.946 | 1.21 | 1.06 | 0.962 | 1.1 | 0.658 | 0.729 | 1.11 | 1.05 | 1.56 | 1.52 | 1.34 | 3.08 | 0.929 | 3.26 | 0.564 | 0.853
CC(=O)c1c(C)c2cnc(Nc3ccc(N4CCNCC4)cn3)nc2n(C2CCCC2)c1=O.Cl | 1.08 | 1.03 | 0.982 | 1.31 | 0.962 | 1.6 | 0.983 | 1.42 | 0.872 | 1.18 | 1.03 | 1.88 | 0.776 | 1.63 | 0.724 | 2 | 1.07 | 1.97 | 1.01 | 2.5
O=C(O)C1CSCN1 (stereo not given) [Timonacic] | 0.997 | 1.09 | 0.731 | 0.89 | 0.858 | 1.21 | 0.803 | 1.17 | 0.934 | 0.92 | 1.02 | 1.18 | 0.798 | 0.886 | 0.876 | 1.11 | 0.859 | 0.933 | 0.902 | 0.826
CC(C(=O)O)c1ccc(CC2CCCC2=O)cc1 (stereo not given) [Loxoprofen] | 1.33 | 1.83 | 1.71 | 1.53 | 1.74 | 1.52 | 1.69 | 1.19 | 1.51 | 1.13 | 1.2 | 1.36 | 1.38 | 1.1 | 1.13 | 1.2 | 1.11 | 1.27 | 1.16 | 0.818
CC(Oc1cc(-c2cnn(C3CCNCC3)c2)cnc1N)c1c(Cl)ccc(F)c1Cl [(S)-crizotinib] | 0.847 | 0.945 | 0.763 | 1.05 | 0.862 | 1.6 | 0.727 | 1.29 | 0.766 | 0.893 | 0.916 | 1.13 | 0.952 | 1.05 | 1.01 | 1.09 | 0.929 | 1.29 | 0.949 | 1.13
CC1CC2C3CC(F)C4=CC(=O)C=CC4(C)C3(F)C(O)CC2(C)C1(OC(=O)c1ccco1)C(=O)SCF (stereo not given) [fluticasone furoate] | 0.787 | 0.845 | 0.854 | 0.846 | 0.728 | 1.1 | 0.745 | 0.764 | 0.766 | 0.716 | 0.0405 | 0.191 | 0.0518 | 0.155 | 0.0344 | 0.236 | 0.063 | 0.236 | 0.0466 | 0.185
Nc1nc(CC(=O)Nc2ccc(CCNCC(O)c3ccccc3)cc2)cs1 (stereo not given) [Mirabegron] | 1.02 | 1.01 | 0.877 | 0.88 | 0.906 | 0.891 | 0.862 | 1.01 | 1.05 | 0.967 | 1.08 | 1.02 | 0.998 | 0.896 | 0.979 | 1.02 | 1.04 | 0.841 | 1.1 | 1.03
Cc1ccc(Nc2nccc(N(C)c3ccc4c(C)n(C)nc4c3)n2)cc1S(N)(=O)=O.Cl | 0.988 | 1.08 | 0.904 | 1.12 | 0.774 | 1.08 | 0.853 | 0.834 | 0.929 | 0.859 | 0.894 | 1.03 | 0.979 | 0.995 | 0.751 | 0.887 | 0.553 | 0.822 | 0.505 | 0.682

Reference: the supplement of paper PMC9174493
